# Measured values taken from PMC10668032.
# Some of the results follow. At the low end of the ranking, values are background and their order means little.
# Molecular target: SIX1-Q177R homeodomain (UniProt Q15475)
# Assay: universal protein binding microarray
# Details: Universal all-10-mer PBM (8x60K, AMADID 030236), 300 nM GST-tagged protein, Alexa Fluor 488 anti-GST; buffer, salt, pH and temperature not stated; high values mean tight binding; most listed sequences are background and not binding sites; double strand, one strand shown
row,Sequence,binding signal
1,GTAAAATA,-0.211 E-score
2,TCAATCGA,-0.142 E-score
3,GAGACAAA,-0.203 E-score
4,GAAGTCCA,-0.149 E-score
5,AGAAGCAG,-0.205 E-score
6,AGCGGCAA,-0.247 E-score
7,CACCATTC,0.23 E-score
8,ATTGCCAC,-0.215 E-score
9,CGAACCCC,0.238 E-score
10,ATCAAGGA,-0.152 E-score
11,GGCTAAAA,-0.17 E-score
12,AGTGCTAG,0.116 E-score
13,GCAACCTA,-0.14 E-score
14,TATGGAGA,-0.197 E-score
15,AAGAAGTA,-0.0508 E-score
16,CCTCATGA,0.0697 E-score
17,ACACGAGG,0.38 E-score
18,ATCGCGGA,-0.135 E-score
19,TCAAGCAA,-0.249 E-score
20,CAAATCAG,-0.123 E-score
21,AAGTGCGA,-0.025 E-score
22,ATACGTTA,-0.117 E-score

row,Sequence,binding signal
1,GAACATTA,-0.0636 E-score
2,GATCAATC,-0.0461 E-score
3,ATTGGAGA,-0.207 E-score
4,GTTGAGGA,-0.221 E-score
5,AACTGCCT,-0.239 E-score
6,AGGACGTC,-0.256 E-score
7,CAGCGGAG,0.142 E-score
8,AAATCTCC,-0.138 E-score
9,CCCTTTAC,0.166 E-score
10,AAAAGCAG,-0.157 E-score
11,ACGACACC,0.487 E-score
12,ATAGTATA,0.175 E-score
13,AGTGAGCA,0.0888 E-score
14,CTAGTGTC,0.407 E-score
15,CCTGAACG,-0.0725 E-score
16,TATGGGCA,-0.126 E-score
17,CGGGAGGC,-0.192 E-score
18,TAAGGGAA,-0.137 E-score
19,CTGAAGGC,-0.25 E-score
20,AACCACCG,-0.115 E-score
21,GTGGCAAC,-0.0844 E-score
22,ACTAACCG,0.0854 E-score

row,Sequence,binding signal
1,ACGTGTAG,0.347 E-score
2,GTCGGTTA,-0.0594 E-score
3,GATTGTGA,-0.172 E-score
4,AGCAGGAG,-0.0517 E-score
5,ATCGACCG,-0.163 E-score
6,ATATCCTC,-0.103 E-score
7,CAGATCTA,-0.0572 E-score
8,ACTGACAA,0.153 E-score
9,CAAGATAC,0.0571 E-score
10,TAGCTGAA,-0.158 E-score
11,ACGACGTG,0.175 E-score
12,AATTTGTA,-0.0319 E-score
13,CAGTCGAG,-0.113 E-score
14,ACGTATCA,0.0685 E-score
15,CATCGGTA,-0.134 E-score
16,AGTTCTCC,-0.02 E-score
17,GAACTCGC,-0.0668 E-score
18,GCGTTCAC,-0.0775 E-score
19,CTCCTGGA,-0.186 E-score
20,ACTGGATC,0.155 E-score
21,ATCCACTA,0.111 E-score
22,AGTGGATA,0.163 E-score

row,Sequence,binding signal
1,CCATATAC,0.0875 E-score
2,TGCAGCAA,0.0343 E-score
3,GCGCAGCC,-0.238 E-score
4,CTCTAGGC,-0.233 E-score
5,CGCAGCCG,-0.122 E-score
6,AGAACAGG,0.0565 E-score
7,CTCAGGAG,-0.0655 E-score
8,GGGCCATA,-0.18 E-score
9,AAATCTGG,-0.155 E-score
10,GGGCTAGA,-0.00423 E-score
11,CAGGATAC,0.168 E-score
12,GCGTATTA,0.021 E-score
13,CAATCTCC,-0.219 E-score
14,CATGAAAA,-0.0754 E-score
15,ACAAAATA,-0.0687 E-score
16,ATTGAAAT,-0.309 E-score
17,CACCACGA,0.28 E-score
18,GCGTAAGC,-0.0522 E-score
19,CTCCCCCA,0.176 E-score
20,AAATCGGC,-0.223 E-score
